{
  "source": "paper PMC6919601",
  "about": "“Identification of Plasmodium dipeptidyl aminopeptidase allosteric inhibitors by high throughput screening” (PLoS ONE, 2019)",
  "note": "About 230 (0.21%) of roughly 110,000 compounds showed an effect of 50% or more. The list shows a part of the results.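 Further: 30 min substrate incubation versus DMSO and 10 µM JCP410 controls.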",
  "data": [
    {"molecular_target": "DPAP1 (Plasmodium falciparum, UniProt Q8IIJ9)", "sequence (Q8IIJ9 whole entry, looked up)": "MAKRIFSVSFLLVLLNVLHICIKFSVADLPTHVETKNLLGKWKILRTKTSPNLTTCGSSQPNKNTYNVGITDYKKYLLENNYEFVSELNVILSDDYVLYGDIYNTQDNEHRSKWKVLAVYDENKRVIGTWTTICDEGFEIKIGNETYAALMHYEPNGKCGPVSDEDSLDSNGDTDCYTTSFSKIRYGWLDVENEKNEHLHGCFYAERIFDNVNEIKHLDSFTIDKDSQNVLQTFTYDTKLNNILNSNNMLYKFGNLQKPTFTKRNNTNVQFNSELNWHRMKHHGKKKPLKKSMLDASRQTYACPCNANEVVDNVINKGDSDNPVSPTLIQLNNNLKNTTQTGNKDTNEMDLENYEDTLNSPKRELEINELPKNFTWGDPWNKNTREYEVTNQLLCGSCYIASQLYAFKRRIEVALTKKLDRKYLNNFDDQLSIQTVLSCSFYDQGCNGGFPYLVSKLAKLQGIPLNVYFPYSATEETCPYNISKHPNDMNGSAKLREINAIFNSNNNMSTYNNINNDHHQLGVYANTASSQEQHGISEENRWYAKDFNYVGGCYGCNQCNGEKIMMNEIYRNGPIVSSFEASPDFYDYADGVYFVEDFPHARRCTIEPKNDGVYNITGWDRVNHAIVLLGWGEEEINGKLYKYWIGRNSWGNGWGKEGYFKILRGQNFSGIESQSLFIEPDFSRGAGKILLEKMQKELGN", "assay": "primary screen, percent inhibition; read by cleavage of a fluorogenic dipeptide substrate; higher = more effect of the substance", "set-up": "species or system P. falciparum D10 trophozoite lysates; single well", "units": {"% Inhibition @ 10 uM": "%"}, "values": [
      {"smiles": "Cc1ccnc(/N=C/c2nc(-c3ccccc3Br)oc2O)c1", "% Inhibition @ 10 uM": -2.27},
      {"smiles": "COc1ccc(Cn2c(C(=O)O)c(CNCCc3ccc(OC)cc3OC)c3ccc(C)cc32)cc1", "% Inhibition @ 10 uM": -5.24},
      {"smiles": "CCN1CCCC1CNCc1c(C(=O)O)n(Cc2ccc(F)cc2Cl)c2ccccc12", "note": "(centres unmarked)", "% Inhibition @ 10 uM": 3.34},
      {"smiles": "O=C(/N=C1\\SC2CS(=O)(=O)CC2N1c1cccc(C(F)(F)F)c1)c1ccccc1", "note": "(centres unmarked)", "% Inhibition @ 10 uM": 4.11},
      {"smiles": "CN1CCN(CC(=O)Nc2c(C(=O)C3CC3)oc3ccccc23)CC1", "% Inhibition @ 10 uM": -6.08},
      {"smiles": "Cc1ccc(N(CC(=O)N2CCCCCC2)S(=O)(=O)c2ccc(F)cc2)cc1", "% Inhibition @ 10 uM": 4.32},
      {"smiles": "Cc1cccc(-c2nc(CS(=O)CC(=O)N3CC(C)CC(C)C3)c(C)o2)c1", "note": "(centres unmarked)", "% Inhibition @ 10 uM": 0.689},
      {"smiles": "COc1ccc(NS(=O)(=O)c2ccc(OC)c(Cl)c2Cl)cc1", "% Inhibition @ 10 uM": 1.64},
      {"smiles": "CCCNC(=O)CN(c1ccc(C)cc1C)S(=O)(=O)c1ccccc1", "% Inhibition @ 10 uM": 4.5},
      {"smiles": "CC1(C)Cc2c(sc3c2C(N)=NCN3)CO1", "% Inhibition @ 10 uM": -0.274},
      {"smiles": "COc1ccc(C(=O)NCc2ccc(Cl)cc2)cc1", "% Inhibition @ 10 uM": -4.57},
      {"smiles": "CCOc1ccc(/N=c2/sc3ccccc3n2C)cc1", "% Inhibition @ 10 uM": 1.73},
      {"smiles": "Cc1ccc(CNC(=O)CN(C2CCCCC2)S(C)(=O)=O)cc1", "% Inhibition @ 10 uM": -2.74},
      {"smiles": "Cc1ccc(NC(=O)c2ccc(CSc3ncccn3)cc2)cc1", "% Inhibition @ 10 uM": -3.33},
      {"smiles": "COc1ccc(-c2[nH]nc3nc(-c4ccccc4O)cc(C(=O)O)c23)cc1", "% Inhibition @ 10 uM": 5.62},
      {"smiles": "COc1ccc(S(=O)(=O)Nc2ccc(F)cc2)cc1", "% Inhibition @ 10 uM": -3.04},
      {"smiles": "COc1ccc(CC(=O)N2N=C(C)CC2(O)c2cccnc2)cc1", "note": "(centres unmarked)", "% Inhibition @ 10 uM": -1.35},
      {"smiles": "O=S(=O)(c1ccccc1)c1nc(-c2ccc(Cl)cc2)oc1NCCCN1CCOCC1", "% Inhibition @ 10 uM": -1.36},
      {"smiles": "COc1ccc(N(CC(=O)N(C)Cc2ccccc2)S(=O)(=O)c2ccccc2)cc1", "% Inhibition @ 10 uM": -11.4},
      {"smiles": "Cc1ccc2nc(NCc3ccc(C(=O)O)cc3)c3nncn3c2c1", "% Inhibition @ 10 uM": -0.692},
      {"smiles": "Nc1nnc(CCS(=O)(=O)c2ccc(Br)cc2)s1", "% Inhibition @ 10 uM": -1.77},
      {"smiles": "CCSc1oc(-c2cccs2)nc1S(=O)(=O)c1ccc(Cl)cc1", "% Inhibition @ 10 uM": 2.17},
      {"smiles": "Cc1ccc(N2C(=O)CC(N3CCN(Cc4ccc5c(c4)OCO5)CC3)C2=O)c(C)c1", "note": "(centres unmarked)", "% Inhibition @ 10 uM": -1.78},
      {"smiles": "COc1ccc(OC)c(NC(=O)COc2ccccc2C(C)(C)C)c1", "% Inhibition @ 10 uM": 4.84},
      {"smiles": "Cc1ccc(NC(=O)COc2ccccc2)cc1F", "% Inhibition @ 10 uM": -2.8},
      {"smiles": "CC(C)C1Cc2ccccc2-c2nc(S)nc(O)c21", "note": "(centres unmarked)", "% Inhibition @ 10 uM": 2.86},
      {"smiles": "CCO/C(O)=C1/C(CC)=NC2=C(C(=O)CC(C)(C)C2)C1c1ccccc1", "note": "(centres unmarked)", "% Inhibition @ 10 uM": 14.4},
      {"smiles": "CCCNC(=O)C(CC(C)C)N1Cc2ccccc2C1=O", "note": "(centres unmarked)", "% Inhibition @ 10 uM": 4.36},
      {"smiles": "N#Cc1ccc(Cn2c(=O)sc3ccccc32)cc1", "% Inhibition @ 10 uM": 4.22},
      {"smiles": "O=C1CCCc2c1cc(-c1ccccc1)n2-c1ccc(O)cc1", "% Inhibition @ 10 uM": -1.52},
      {"smiles": "CCOC(=O)C1=C(CC)OC(N)=C(C#N)C1c1ccc(F)c(Br)c1", "note": "(centres unmarked)", "% Inhibition @ 10 uM": -0.197},
      {"smiles": "O=C1CCc2nc3sc4c(c3c(=O)n2N1)CCCC4", "% Inhibition @ 10 uM": 3.04},
      {"smiles": "CNS(=O)(=O)c1cn(CC(=O)NCCc2ccc(Cl)cc2)cc1S(=O)(=O)NC", "% Inhibition @ 10 uM": -5.32},
      {"smiles": "COc1ccc(Cc2nnc(SCC(=O)Nc3nc(-c4ccccc4)cs3)o2)cc1", "% Inhibition @ 10 uM": -6.44},
      {"smiles": "COC1(c2ccccc2)c2ccccc2Oc2ccccc21", "% Inhibition @ 10 uM": 4.63},
      {"smiles": "Cc1ccc(Cn2cc(CCC(=O)N3CCC4(CC3)OCCO4)c3ccccc32)cc1", "% Inhibition @ 10 uM": -0.822},
      {"smiles": "Cc1cccc(N(CC(=O)Nc2ccccc2F)S(C)(=O)=O)c1", "% Inhibition @ 10 uM": -0.62},
      {"smiles": "COc1ccc(C2C3=C(O)CC(C)(C)CC3=NC(C)=C2C(=O)OCCc2ccccc2)c(OC)c1", "note": "(centres unmarked)", "% Inhibition @ 10 uM": 5.94},
      {"smiles": "C=CCC1(C#N)C(SC)=NC2=C(C(=O)CC(C)(C)C2)C1c1ccccc1", "note": "(centres unmarked)", "% Inhibition @ 10 uM": -4.11},
      {"smiles": "O=C(COc1ccc(S(=O)(=O)NCc2ccccc2)cc1Cl)N1CCCCCC1", "% Inhibition @ 10 uM": -3.33},
      {"smiles": "CCOCCCNC(=O)Cn1cnc2c1c(=O)n(C)c(=O)n2C", "% Inhibition @ 10 uM": 0.222},
      {"smiles": "CCC(C(=O)NC1CCCC1)n1c(SCc2cccc(F)c2)nc2cccnc21", "note": "(centres unmarked)", "% Inhibition @ 10 uM": -3.88},
      {"smiles": "Cn1c(=O)c(S(=O)C(C)(C)C)c(O)c2ccccc21", "note": "(centres unmarked)", "% Inhibition @ 10 uM": 4.61},
      {"smiles": "CC1(C)CC(=O)C2=C(C1)N(c1nnc(SCc3ccccc3)s1)C(=O)CC2c1ccccc1", "note": "(centres unmarked)", "% Inhibition @ 10 uM": 0.9},
      {"smiles": "CCOc1cc(C=C2C(=O)N(C)C(=O)N(C)C2=O)cc(Cl)c1OCc1ccccc1", "% Inhibition @ 10 uM": -1.93},
      {"smiles": "Cc1cc(C)c(NC(=O)CNC2CC(C)(C)NC(C)(C)C2)c(C)c1", "% Inhibition @ 10 uM": 0.986},
      {"smiles": "CC(NS(=O)(=O)c1ccc([N+](=O)[O-])cc1)c1ccccc1", "note": "(centres unmarked)", "% Inhibition @ 10 uM": 3.31},
      {"smiles": "CCN1CCN(C(=O)CSCc2cnn(-c3ccccc3)c2-n2cccc2)CC1", "% Inhibition @ 10 uM": 2.27},
      {"smiles": "Cc1cccc(C(=O)N(Cc2cccs2)C2CCS(=O)(=O)C2)c1", "note": "(centres unmarked)", "% Inhibition @ 10 uM": 3.29},
      {"smiles": "CCN(CC)CC#CC(CN1CCCCC1)N1CCCCC1", "note": "(centres unmarked)", "% Inhibition @ 10 uM": -1.98}
    ]}
  ]
}
